Results on 19 molecules are retold here after the supplement of paper PMC12632987.

To fix the notation:
T1: TRAF2, Q12933
T1 chain: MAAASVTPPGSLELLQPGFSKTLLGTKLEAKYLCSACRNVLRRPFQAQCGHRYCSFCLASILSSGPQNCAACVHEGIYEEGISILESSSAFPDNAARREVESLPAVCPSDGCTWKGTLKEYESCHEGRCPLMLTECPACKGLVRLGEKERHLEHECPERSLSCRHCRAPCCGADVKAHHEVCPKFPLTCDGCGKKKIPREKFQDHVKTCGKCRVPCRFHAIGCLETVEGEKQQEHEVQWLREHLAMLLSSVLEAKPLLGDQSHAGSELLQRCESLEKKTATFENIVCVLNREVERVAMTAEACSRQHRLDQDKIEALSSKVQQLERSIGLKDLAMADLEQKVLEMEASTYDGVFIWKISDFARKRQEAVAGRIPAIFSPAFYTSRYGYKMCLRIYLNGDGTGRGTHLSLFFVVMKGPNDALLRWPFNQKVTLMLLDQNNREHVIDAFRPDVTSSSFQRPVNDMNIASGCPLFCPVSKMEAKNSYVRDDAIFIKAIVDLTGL

B1: traf2_out_15_48_1343 (protein)
chain: STEELRKVASEIADEIDAKKDEIAKRLEELIPKAPPEDAALLTELRDLAKSGATQRDVLAKMDEVIPKLSPEFAAKVTELREELEEVLREASKRMNEVLK
B2: traf2_out_20_3_2071 (protein)
chain: KELEEEAERELERALELLKRAAELADEETAKRLEELIKRLKASRELSVDDRLVVVSEVRREVLELAEEAKAAGKEELAKELEEAAEALNRAAQLLYDILQ
B3: traf2_out_11_104_646 (protein)
chain: LTREQAREFNDFAMEANDKAKELLQEVADFLESRGHEEEAAKVRAELAHPGSGVSTFKNLLEELLPKLDEESRAVAEKAIKELEELQKKVSDKLNELEKK
B4: traf2_out_11_155_681 (protein)
chain: EEKQKLNNELVDKVTAIADELKAQVAAIAAEAAAAHPEHAAEIAATLAASAPFSWRTFAGTAAATFDRLGDAAAAARVRALLEEAQKKANEIVKEIEAKI
B5: traf2_out_13_95_1208 (protein)
chain: EEEKTRKLREKMNEIADELIDFIEEKAEEIEKATGNEEYKKDILSTLRRNGVRAAVALIKEYAKKDPKYKEVYEKAAEEAEAKIREAGRKAAEEIKRIEE
B6: traf2_out_18_167_1827 (protein)
chain: EEEKREELERLTDRLVAYSEIKRAALLAIEKLRTDPAAYPAALARTIELLDAVPEFRPWAERLRAAPEAEKEALLEEIAEAAQREANRLYKERERLLKEL
B7: traf2_out_11_155_765 (protein)
chain: SKEQEIWQELNDKVAEIVDEAEKEVRELIETDERLSPEEKAELLAILDEKRKYGLRTMMAALIARYKELGREDLAKKVQEILDKAQEKMSKAAIEAEKKI
B8: traf2_out_17_162_1507 (protein)
chain: SPLEELRRRIEEELEELRRELERLEKKMENLKSMSKEELSDLLVEASEAKARALRLAELVREHREELGEEEAERLIREAEEIAERLQRIANEAYKELLKK
B9: traf2_out_15_181_1335 (protein)
chain: MTPEEIAARVAELKAEIAELKAKAEEYLKKAEAVKDTDLTEALVYYSEARRAYLRIAELYKEIAELTGDEATYKKKIEEAEKKAEELQKKMNELYKKIEK
B10: traf2_out_14_166_1289 (protein)
chain: MTPEEIERIREIVDKLEPLTEEAVERAEEILEKNRDKLSPEQLAELERLLEIARRNIGSSAINALREMAEIFEKAGLEEAAEEFRRLAEELEEKLRELNK
B11: traf2_out_1_158_916 (protein)
chain: DTKKNLILAVVELVGRFNIESALENGDEETAEKLREVVEKVIETVKKLLIEENKSVEEVIKEIEKIVEEAQKKVDPETAAKIRQLGRQIISGIKQVEKLM
B12: traf2_out_17_162_1520 (protein)
chain: SALEERLAELEEELEELREELERLKEKLKNLSSMSKEELTDLLVEASEARRRALELAEELERLKPLIGEERAGELIEEAREIAEELGRIANEIYKELEKK
B13: traf2_out_20_3_2214 (protein)
chain: EELRAEVERELEEIERLLAEAAPRLAPEDLARLRALLEEARAALETDPRDALVALSELRRALLELADRARAAGDEELAALLEAAAEAANRAANLVYRLLE
B14: traf2_out_13_95_1054 (protein)
chain: SAETAEKINEIADEALEEALALLEEARAEVADDPEASAVLDEALRLAETKGISEAIHLLEEARAADPAHAERFAALIERLRAIRREAGRKVAEVLKEAEE
B15: traf2_out_20_3_2118 (protein)
chain: EELEEELEKELEEALKLLKEAAKLADKKTAKKLEKLAKRLKESRKLSPSDRLVVVSEVRREVRRLRLEAEKKGDKKLAKVLDEAAEELNRAANLLMKIIE
B16: traf2_out_11_155_705 (protein)
chain: EKKKELQNELVDKMIEIEDKLKKEVDKIADEAAKEHPEHAAEIAKVRKESAPFSGTSYARIMAEKFKELGLEEYAEKVEKLLEKAQKEKNKIYKEIEEKM
B17: traf2_out_20_3_2174 (protein)
chain: SELEKELEKKLEEAIKLLKEAAKAADKETAKRLKELIKRLKESRKLSYSDRLVEVSEIRREVLRLAEEAKKKGDEELAKLLEEAAEALNKAANILYKIIQ
B18: traf2_out_13_95_1060 (protein)
chain: SAETAAKINALADEAEERALALLDAAKAELADDPEAVAALDRARRLARTRGIRAAIHELRRAKAAHPAHAAEWDALIAELEAIRRELGREVAKILKEEKE
B19: traf2_out_17_162_1592 (protein)
chain: SELEERVREFEERLEELEKKLKELKEKLKKIDELSKEELTDLLVEASEARREARELLEEIRELREELPEERYEELAERAEELAEEFQRIANKFYNKLLEK

The full ranking holds about 1,800 sequences; the median of “median log2 fold change of GCK-ALFA target abundance (FLAG IP / Myc IP barcode read proportion)” is about 0.14, and the lowest 2% start at about -0.84. This is one part of the list.

The target in the experiment is T1, TRAF2, Q12933. Kind of experiment: median log2 fold change of GCK-ALFA target abundance (FLAG IP / Myc IP barcode read proportion) (log2 ratio); each designed protein is fused to an ALFA-tag nanobody in HEK293 cells to bring the named protein to FLAG-tagged glucokinase (GCK); Myc marks an untargeted standard; higher = target protein stabilised (more abundant). To be noted: target protein: 3xFLAG-MCP-GCK-ALFA reporter; HEK293 landing pad (RPLP). In a few lines:
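An ALFA-nanobody-fused binder library was recombined into HEK293 landing-pad cells and induced with 2 μg mL^−1 doxycycline. Cells were transfected with a plasmid expressing a FLAG-tagged target and a Myc-tagged standard. After 48 h, lysates underwent anti-FLAG and anti-Myc immunoprecipitation, and circular RNA barcodes were reverse transcribed, amplified and sequenced. Target abundance is the per-binder median log2 ratio of FLAG to Myc barcode read proportions. Barcodes needed ≥10^−7 proportion in both replicates, binders ≥3 barcodes per replicate, and a 10^−6 pseudocount was added; the two replicates were pooled.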
Turning to B1, the “median log2 fold change” value is 0.156.
As for B2, the figure is 0.112; as for B3, 0.185; as for B4, 0.223.
In the case of B5, the “median log2 fold change” value was -0.7.
Take B6: the “median log2 fold change” value came out at 0.289.
On to B7, for which the “median log2 fold change” value was determined as 0.242.
For B8, the “median log2 fold change” value worked out at 0.373.
Then B9, with 0.373; and B10, with 0.267; and B11, with -0.516.
As to B12, the “median log2 fold change” value came to 0.215.
Take B13: the “median log2 fold change” value is -0.0162.
As for B14, the figure is 0.213; as for B15, 0.107; as for B16, 0.267.
In the case of B17, the “median log2 fold change” value came to 0.281.
As for B18, the figure is -0.256; as for B19, -0.162.
